{
  "source": "PubChem BioAssay AID504332",
  "about": "(National Center for Advancing Translational Sciences (NCATS), 2011)",
  "note": "Out of some 350,000 compounds screened, about 31,000 (8.9%) were called active. Inconclusive results, whose numbers are uncertain, are shown with a selection of clear calls. Calls come from the whole dose curve; as a rule, active = well fitted inhibition curve with a large enough effect; inconclusive = small, poorly fitted or top-dose-only effect; inactive = no such curve, though single readings can be large or run the other way. Where the call is inconclusive, the potency comes from a doubtful curve fit. % is set by controls: 0 for no effect and ±100 for the full control effect; potency is the fitted concentration of half-maximal effect; tags give direction and shape of the fitted curve.",
  "data": [
    {"molecular_target": "Histone-lysine N-methyltransferase EHMT2 (Homo sapiens) (UniProt Q96KQ7)", "sequence (Q96KQ7 whole entry, looked up)": "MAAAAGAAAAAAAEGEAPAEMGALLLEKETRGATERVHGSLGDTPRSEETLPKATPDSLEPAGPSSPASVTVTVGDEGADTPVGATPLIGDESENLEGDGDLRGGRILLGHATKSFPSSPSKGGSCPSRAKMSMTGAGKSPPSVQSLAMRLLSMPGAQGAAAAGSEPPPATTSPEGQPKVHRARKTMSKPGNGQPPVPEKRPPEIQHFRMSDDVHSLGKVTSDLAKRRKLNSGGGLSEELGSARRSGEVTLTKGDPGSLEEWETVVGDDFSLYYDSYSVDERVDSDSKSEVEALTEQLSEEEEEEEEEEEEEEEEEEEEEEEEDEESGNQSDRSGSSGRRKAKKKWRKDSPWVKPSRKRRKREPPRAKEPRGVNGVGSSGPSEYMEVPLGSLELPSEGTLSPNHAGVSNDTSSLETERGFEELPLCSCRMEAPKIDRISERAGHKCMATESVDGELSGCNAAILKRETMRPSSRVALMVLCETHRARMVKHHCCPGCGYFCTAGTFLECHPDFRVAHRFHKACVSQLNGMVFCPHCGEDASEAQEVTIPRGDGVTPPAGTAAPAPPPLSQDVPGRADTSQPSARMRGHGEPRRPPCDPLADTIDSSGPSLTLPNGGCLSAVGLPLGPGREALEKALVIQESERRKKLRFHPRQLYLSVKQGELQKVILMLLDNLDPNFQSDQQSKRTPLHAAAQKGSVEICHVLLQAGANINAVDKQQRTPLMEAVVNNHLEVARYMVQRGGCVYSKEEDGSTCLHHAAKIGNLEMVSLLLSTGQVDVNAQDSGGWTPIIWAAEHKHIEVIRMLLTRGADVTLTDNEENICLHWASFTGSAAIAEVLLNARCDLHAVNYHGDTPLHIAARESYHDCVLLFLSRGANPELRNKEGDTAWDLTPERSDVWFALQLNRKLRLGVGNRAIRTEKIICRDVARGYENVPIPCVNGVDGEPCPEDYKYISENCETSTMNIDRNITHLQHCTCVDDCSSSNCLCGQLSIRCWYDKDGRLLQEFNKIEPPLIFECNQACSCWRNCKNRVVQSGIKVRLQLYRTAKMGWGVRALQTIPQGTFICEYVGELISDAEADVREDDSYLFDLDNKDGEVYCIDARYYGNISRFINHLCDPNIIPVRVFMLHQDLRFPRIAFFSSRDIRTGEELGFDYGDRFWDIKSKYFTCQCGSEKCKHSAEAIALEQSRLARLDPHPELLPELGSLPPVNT", "assay": "qHTS Assay for Inhibitors of Histone Lysine Methyltransferase G9a; note: nearly all actives have a fitted effect of over 75% in size", "conditions": "G9a H3K9 monomethylation, AlphaScreen, 2 h; activity, negative = inhibition: at 59 µM (top of the series) unless noted", "how_it_was_run": "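Enzyme 20 nM + cpd, 15 min RT; add b-H3K9 pep 500 nM / SAM 20 uM; 2 h RT; anti-H3K9me1 Ab 0.5 ug/mL + SA donor / anti-rabbit acceptor beads 20 ug/mL each, 10 min; AlphaScreen read.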", "values": [
      {"smiles": "O=C(Nc1cccnc1)c1cccc(NC(=O)c2ccco2)c1", "Potency": "active: 39.8 µM"},
      {"smiles": "Cc1cc(C)cc(C(=O)NCC(c2ccc(N(C)C)cc2)N2CCCC2)c1", "note": "(stereo not drawn)", "Potency": "inconclusive: 39.8 µM [inhibitor, single point]"},
      {"smiles": "CN(Cc1ccccc1)c1ccc(-c2nc(-c3ccncc3)no2)cc1[N+](=O)[O-]", "activity, negative = inhibition": "inactive: 2.43%"},
      {"smiles": "Clc1ccc(-c2csc(N/N=C/c3cccnc3)n2)c(Cl)c1", "Potency": "inconclusive: 3.55 µM [inhibitor, single point]"},
      {"smiles": "COc1ccccc1C1C(C#N)=C(N)Oc2cc(C)n(Cc3ccccn3)c(=O)c21", "note": "(stereo not drawn)", "Potency": "active: 35.5 µM"},
      {"smiles": "CC(=O)c1cccc(NC(=S)NNC(=O)c2ccco2)c1", "Potency": "active: 35.5 µM"},
      {"smiles": "O=C(NCc1ccco1)c1ccc2c(c1)N(Cc1ccc(Cl)cc1)C(=O)c1ccccc1S2(=O)=O", "activity, negative = inhibition": "inactive: -37.7%"},
      {"smiles": "COc1ccc(-c2cnc(SCC(=O)Nc3cc(C)on3)n2Cc2ccco2)cc1", "activity, negative = inhibition": "inconclusive: -86.6% [inhibitor]"},
      {"smiles": "O=C(c1ccc(=O)n(Cc2ccccc2)n1)N1CCN(C/C=C/c2ccccc2)CC1", "Potency": "inconclusive: 1.26 µM [inhibitor, partial curve, poor fit]"},
      {"smiles": "COCCn1c(=O)[nH]c2cc(C(=O)Nc3nnc(C)s3)ccc21", "Potency": "active: 79.4 µM"},
      {"smiles": "O=S(=O)(Nc1cc(Cl)ccc1N1CCOCC1)c1ccccc1Cl", "activity, negative = inhibition": "inactive: 13.1% [at 2.33 µM]"},
      {"smiles": "CN(C)c1ccc(N=Nc2ccc(S(N)(=O)=O)cc2)cc1", "Potency": "inconclusive: 31.6 µM [inhibitor, partial curve, poor fit]"},
      {"smiles": "COc1ccc(-c2[nH]ncc2-c2ccc3c(c2)OCCO3)c(O)c1", "activity, negative = inhibition": "inactive: -4.31%"},
      {"smiles": "CSc1nnc(C)c(=O)n1COC(=O)COc1ccccc1", "Potency": "inconclusive: 22.4 µM [inhibitor, single point]"},
      {"smiles": "O=C(c1ccc2c(=O)n(Cc3ccc4c(c3)OCO4)c(=S)[nH]c2c1)N1CCCCC1", "activity, negative = inhibition": "inconclusive: -89% [inhibitor] [at 102 µM]"},
      {"smiles": "Cc1cccc(/C=N/c2sc3c(c2C(=O)OC(C)(C)C)CCN(C)C3)c1O", "Potency": "inconclusive: 20 µM [inhibitor, single point]"},
      {"smiles": "Cc1nn(C(C)C(=O)NCc2ccccc2F)c(=O)c2nn(-c3ccccc3)c(C)c12", "note": "(stereo not drawn)", "Potency": "inconclusive: 0.141 µM [inhibitor, full curve, poor fit]"},
      {"smiles": "NC(=O)/C(=C\\c1ccccc1)NC(=O)c1ccc(NC(=O)c2ccccc2)cc1", "activity, negative = inhibition": "inactive: 7.5% [at 102 µM]"},
      {"smiles": "CCOc1ccc(NC(=S)NC(=O)/C=C/c2ccc(Br)cc2)c([N+](=O)[O-])c1", "activity, negative = inhibition": "inconclusive: -57.7% [inhibitor]"},
      {"smiles": "COC(=O)CSc1nnc(-c2ccccc2O)n1-c1ccc(C)cc1", "Potency": "inconclusive: 28.2 µM [inhibitor, single point]"},
      {"smiles": "COc1ccc(-c2[nH]ncc2CN(Cc2nccn2C)C(C)C)c(F)c1", "Potency": "inconclusive: 70.8 µM [inhibitor, partial curve, poor fit]"},
      {"smiles": "CCN(CC)C(=O)Oc1nnc(SC(C)C)n1-c1ccc(Cl)c(Cl)c1", "activity, negative = inhibition": "inactive: 11.3% [at 102 µM]"},
      {"smiles": "CCOc1ccc2nc(SCC(=O)NC(=O)NCc3ccco3)sc2c1", "Potency": "inconclusive: 50.1 µM [inhibitor, partial curve]"},
      {"smiles": "N#C/C(=C\\c1cc(Cl)cc(Cl)c1O)C(=O)NC1CCCCC1", "Potency": "inconclusive: 63.1 µM [inhibitor, partial curve, poor fit]"},
      {"smiles": "O=C(CCS(=O)(=O)c1ccccc1)Nc1nc2cc3c(cc2s1)OCCO3", "Potency": "inconclusive: 50.1 µM [inhibitor, partial curve, poor fit]"},
      {"smiles": "Cc1ccc(C)c(Nc2nnc(-c3ccc(C)c(S(=O)(=O)NCC4CCCO4)c3)c3ccccc23)c1", "note": "(stereo not drawn)", "activity, negative = inhibition": "inactive: -27.9%"},
      {"smiles": "CN1CC(=O)N(CC(=O)Nc2ccc(N3CCOCC3)cc2)C1=O", "activity, negative = inhibition": "inactive: -50.8% [at 2.33 µM]"},
      {"smiles": "COc1ccc(NC(=O)CSc2nnc(Cc3cccn3C)n2-c2ccc(F)cc2)cc1", "Potency": "active: 70.8 µM"},
      {"smiles": "O=C(c1nc2n(n1)C(c1ccc(Cl)cc1)C=C(c1ccccc1)N2)N1CCOCC1", "note": "(stereo not drawn)", "Potency": "active: 3.55 µM"},
      {"smiles": "CCCn1c(SCC(=O)Nc2cc(Cl)ccc2OC)nc(O)cc1=O", "activity, negative = inhibition": "inactive: 1.73% [at 2.33 µM]"},
      {"smiles": "O=C(/C=C/c1ccccc1)N1CCN(c2c(Cl)cccc2[N+](=O)[O-])CC1", "Potency": "inconclusive: 89.1 µM [inhibitor, single point]"},
      {"smiles": "Cc1ccc(Nc2nnc(-c3ccncc3)s2)c(Br)c1", "Potency": "inconclusive: 56.2 µM [inhibitor, partial curve, poor fit]"},
      {"smiles": "COc1ccc(C(=O)/C=C/c2cn(CC(O)CN3CCc4ccccc43)c3ccccc23)cc1", "note": "(stereo not drawn)", "Potency": "inconclusive: 7.08 µM [inhibitor, partial curve, poor fit]"},
      {"smiles": "Cc1cc(Cl)cc(Br)c1OCCCN1C(=O)NC(C)(C)C1=O", "Potency": "inconclusive: 79.4 µM [inhibitor, single point]"},
      {"smiles": "COc1cccc(NC(=O)c2oc3ccccc3c2NC(=O)C2CCCCC2)c1", "Potency": "inconclusive: 39.8 µM [inhibitor, single point]"},
      {"smiles": "O=C(O[C@@H]1OC2COC(=O)c3cc(O)c(O)c(O)c3-c3c(cc(O)c(O)c3O)C(=O)O[C@@H]([C@H]1O)[C@@H]2O)c1cc(O)c(O)c(O)c1", "Potency": "active: 1.58 µM"},
      {"smiles": "CCOc1ccc(CCNC(=O)c2ccc(CNS(=O)(=O)c3ccccc3)cc2)cc1OCC", "Potency": "inconclusive: 89.1 µM [inhibitor, single point]"},
      {"smiles": "COc1ccc(NC(=O)O/N=C/c2ccc(N(C)C)cc2)cc1", "Potency": "inconclusive: 70.8 µM [inhibitor, single point]"},
      {"smiles": "COc1ccc(Br)cc1S(=O)(=O)n1ccnc1", "Potency": "inconclusive: 89.1 µM [inhibitor, single point]"},
      {"smiles": "COc1ccc(C(=O)COC(=O)CN2CC(=O)Oc3ccccc32)cc1Br", "Potency": "inconclusive: 1.12 µM [inhibitor, partial curve, poor fit]"},
      {"smiles": "O=S(=O)(c1ccccc1)c1nnn2c1nc(NCc1ccc(Cl)cc1)c1sccc12", "activity, negative = inhibition": "inactive: 1.69%"},
      {"smiles": "CCCN1CNc2c(c(=O)[nH]c(=S)n2CCc2ccc(OC)c(OC)c2)C1", "Potency": "inconclusive: 50.1 µM [inhibitor, partial curve]"},
      {"smiles": "O=C(Nc1ccccn1)NC(C(F)(F)F)C(F)(F)F", "Potency": "inconclusive: 63.1 µM [inhibitor, partial curve, poor fit]"},
      {"smiles": "Cc1csc(N)n1", "Potency": "inconclusive: 39.8 µM [inhibitor, single point]"},
      {"smiles": "Fc1ccc(-n2ncc3c(Nc4cccc(Cl)c4)ncnc32)cc1", "activity, negative = inhibition": "inactive: 0.0464%"},
      {"smiles": "COc1ccccc1NC(=O)Cn1c(=O)c(CNc2ccccc2)cc2cc(OC)c(OC)cc21", "Potency": "inconclusive: 14.1 µM [inhibitor, partial curve, poor fit]"},
      {"smiles": "Cc1cccc(C(=O)N2CCCC(c3nc(-c4ccc(C)o4)no3)C2)c1", "note": "(stereo not drawn)", "Potency": "inconclusive: 79.4 µM [inhibitor, single point]"},
      {"smiles": "O=C(c1cnn(-c2ccc(F)cc2)c1-n1cccc1)N1CCN(c2ccc(Cl)cc2)CC1", "Potency": "inconclusive: 5.01 µM [inhibitor, partial curve, poor fit]"},
      {"smiles": "COc1ccc(N2CCN(Cc3nc4ccccc4c(=O)[nH]3)CC2)cc1", "Potency": "inconclusive: 2 µM [inhibitor, partial curve, poor fit]"},
      {"smiles": "COc1cccc(/C=N/NC(=O)CCn2nnc3ccccc32)c1", "activity, negative = inhibition": "inactive: 1.64% [at 102 µM]"},
      {"smiles": "CCn1nc(C)c2c(-c3ccccc3)cc(=O)n(C(C)C(=O)NCc3ccccc3OC)c21", "note": "(stereo not drawn)", "activity, negative = inhibition": "inactive: 8.04%"},
      {"smiles": "CC(=O)N1CCOc2ccc(S(=O)(=O)N3CCN(c4cccc(C(F)(F)F)c4)CC3)cc21", "activity, negative = inhibition": "inactive: 2.97% [at 102 µM]"},
      {"smiles": "O=C1C2(c3ccccc3)CN(CCO)CC1(c1ccccc1)CN(CCO)C2", "Potency": "inconclusive: 89.1 µM [inhibitor, partial curve, poor fit]"},
      {"smiles": "COC(=O)CN1C(=S)N(c2ccc(F)cc2)C(=O)C1CC(=O)Nc1ccc(F)cc1", "note": "(stereo not drawn)", "activity, negative = inhibition": "inactive: -45.4%"},
      {"smiles": "S=c1[nH]nc(-c2cc(-c3ccccc3)n[nH]2)n1/N=C/C(Br)=C/c1ccccc1", "Potency": "active: 22.4 µM"},
      {"smiles": "Cn1c(=S)n(CCC(=O)O)c2ccccc21", "Potency": "inconclusive: 35.5 µM [inhibitor, partial curve]"},
      {"smiles": "O=C(CCn1ccc2cc(S(=O)(=O)N3CCCC3)ccc21)NCc1ccccc1F", "Potency": "inconclusive: 4.47 µM [inhibitor, partial curve, poor fit]"},
      {"smiles": "C#CCNC(=O)C1=C[C@@H](C(C)(C)C)C[C@@H](OCc2ccc(CO)cc2)O1", "activity, negative = inhibition": "inconclusive: -65% [inhibitor]"},
      {"smiles": "COc1cc(C(=O)N2CCN(c3ncnc4sc(C)c(C)c34)CC2)cc(OC)c1OC", "activity, negative = inhibition": "inactive: -11.8% [at 102 µM]"},
      {"smiles": "CSCc1cccc(C(=O)OC(C)C(=O)Nc2c(C)n(C)n(-c3ccccc3)c2=O)c1", "note": "(stereo not drawn)", "Potency": "active: 8.91 µM"},
      {"smiles": "CN(C)CCNc1nc2sc3c(c2c(=O)n1-c1ccc(F)cc1)CCCCC3", "Potency": "inconclusive: 39.8 µM [inhibitor, partial curve, poor fit]"},
      {"smiles": "c1cncc(-c2nc(-c3ccco3)cs2)c1", "Potency": "inconclusive: 2.51 µM [inhibitor, partial curve, poor fit]"},
      {"smiles": "CN(C)c1cccc(C(=O)Nc2cccc(F)c2)c1", "Potency": "inconclusive: 2 µM [inhibitor, partial curve, poor fit]"},
      {"smiles": "COc1ccccc1CCC(=O)NNC(=O)c1ccc(Br)cc1", "activity, negative = inhibition": "inactive: 1.26% [at 102 µM]"},
      {"smiles": "CCOc1c2ccccc2nn1CCOC", "activity, negative = inhibition": "inactive: 26.1% [at 2.33 µM]"},
      {"smiles": "CCOC(=O)c1c(NC(=O)C2COc3ccccc3O2)sc(C(C)=O)c1C", "note": "(stereo not drawn)", "Potency": "active: 50.1 µM"},
      {"smiles": "CCc1ccc(NC(=O)CN2C(=O)CSc3ccc(S(=O)(=O)N(C)C)cc32)cc1", "activity, negative = inhibition": "inactive: 2.04%"},
      {"smiles": "Cc1ccc(C)c(NC(=O)Cn2cc(S(=O)(=O)Cc3cccc(Cl)c3)c3ccccc32)c1", "activity, negative = inhibition": "inactive: 5.27%"}
    ]}
  ]
}
